Test results: PubChem BioAssay (Tox21)
Several values for one entry are separate records, joined by “and”; a condition that tells them apart may be missing. Equal entries are not always repeated. Inconclusive means that the source gave no clear call. Such entries were picked first, then a sample of the others. Potencies beside an inconclusive call are fits to weak or partial responses and may not hold up. Activity calls are given as the source filed them. Calls come from the whole dose curve; as a rule, active = well fitted inhibition curve with a large enough effect in the repeat runs; inconclusive = weak or mixed curves; inactive = no such curve, though single readings can be large or run the other way.
% is set by controls: 0 for no effect and ±100 for the full control effect; potency is the fitted concentration of half-maximal effect; tags give direction and shape of the fitted curve.

These compounds were tested against Cytochrome P450 2C19 (Homo sapiens) (UniProt P33261) (assay: Cytochrome P450 Family 2 Subfamily C Member 19 (CYP2C19) small molecule antagonists: luciferase reporter qHTS assay (AID 1671197; note: nearly all actives have a fitted effect of over 65% in size)). Conditions: P450-Glo CYP2C19 enzyme, luciferin luminescence, 1 h; series mostly up to 115 µM; activity change, negative = inhibition: at the top concentration.
UniProt P33261, sequence (P33261 whole entry, looked up): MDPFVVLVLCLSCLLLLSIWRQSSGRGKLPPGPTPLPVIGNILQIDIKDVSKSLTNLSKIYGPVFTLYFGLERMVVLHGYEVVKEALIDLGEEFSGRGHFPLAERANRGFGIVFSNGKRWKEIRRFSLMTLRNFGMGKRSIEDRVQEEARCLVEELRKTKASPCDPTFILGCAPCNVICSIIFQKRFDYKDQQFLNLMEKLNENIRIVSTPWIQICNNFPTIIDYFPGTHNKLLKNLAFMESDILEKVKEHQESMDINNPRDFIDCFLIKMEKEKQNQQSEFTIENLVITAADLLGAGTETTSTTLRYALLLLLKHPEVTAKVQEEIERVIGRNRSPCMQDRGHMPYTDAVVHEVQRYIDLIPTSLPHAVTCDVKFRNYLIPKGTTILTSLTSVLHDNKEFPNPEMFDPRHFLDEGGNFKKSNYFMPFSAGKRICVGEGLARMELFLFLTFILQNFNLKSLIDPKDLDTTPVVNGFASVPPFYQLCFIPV
Summary of the method: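 P450-Glo CYP2C19 system: enzyme-substrate mix with compound 10 min at room temperature, then NADPH regeneration solution, 1 h at 37C. Proluciferin-to-luciferin conversion detected by luminescence after 20 min with detection reagent; ketoconazole as positive control.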
In the case of `CC1(C)O[C@@H]2C[C@H]3[C@@H]4C[C@H](F)C5=CC(=O)C=C[C@]5(C)[C@@]4(F)[C@@H](O)C[C@]3(C)[C@]2(C(=O)CO)O1`, the Potency is reported as inconclusive: 79.6 µM [inhibitor, single point]. In the case of `C=CCN1CCc2nc(N)sc2CC1`, the Potency is reported as inconclusive: 4.36 µM [inhibitor, full curve, poor fit]. In the case of `CCCCCCCCCCCCSC#N`, the Potency is reported as inconclusive: 44.8 µM [inhibitor, partial curve]. In the case of `Cc1ccnc2c1NC(=O)c1cccnc1N2C1CC1`, the Potency is reported as inconclusive: 83 µM [inhibitor, single point]. In the case of `CN(C(=O)CN(CCO)CC(=O)N(C)C(C)(C)Cc1ccccc1)C(C)(C)Cc1ccccc1`, the Potency is reported as inconclusive: 38.9 µM [inhibitor]. `O=C(Nc1ncc([N+](=O)[O-])s1)c1cccs1` was tested, and the Potency was active: 8.71 µM. With `CC[N+](C)(CC)CCOC(=O)C1c2ccccc2Oc2ccccc21` the “activity change, negative = inhibition” value was inactive: -20.5% [at 52.9 µM]. `CC(C)(C)NCC(O)c1ccc(O)c(CO)c1` (stereo unspecified) was tested, and the Potency was inconclusive: 88.8 µM [inhibitor, single point].

These compounds were tested against Cytochrome P450 2C9 (Homo sapiens) (UniProt P11712) (assay: Cytochrome P450 Family 2 Subfamily C Member 9 (CYP2C9) small molecule antagonists: luciferase reporter qHTS assay (AID 1671198; note: nearly all actives have a fitted effect of over 50% in size)). Conditions: P450-Glo CYP2C9 enzyme assay, luciferin luminescence; series mostly up to 115 µM; activity change, negative = inhibition: at the top concentration.
UniProt P11712, sequence (P11712 whole entry, looked up): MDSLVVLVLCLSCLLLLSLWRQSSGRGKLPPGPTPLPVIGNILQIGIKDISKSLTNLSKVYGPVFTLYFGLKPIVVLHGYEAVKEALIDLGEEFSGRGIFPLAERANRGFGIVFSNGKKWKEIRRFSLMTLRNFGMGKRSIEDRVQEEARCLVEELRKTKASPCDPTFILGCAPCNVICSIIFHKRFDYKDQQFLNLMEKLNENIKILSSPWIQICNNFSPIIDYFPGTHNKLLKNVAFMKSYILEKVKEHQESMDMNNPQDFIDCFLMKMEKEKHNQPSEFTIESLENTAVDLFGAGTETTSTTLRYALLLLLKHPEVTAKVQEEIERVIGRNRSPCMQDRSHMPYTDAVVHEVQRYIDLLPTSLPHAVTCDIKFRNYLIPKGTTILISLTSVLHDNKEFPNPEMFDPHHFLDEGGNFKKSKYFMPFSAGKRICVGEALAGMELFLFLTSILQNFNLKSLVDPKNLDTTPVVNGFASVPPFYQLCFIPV
Summary of the method: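 CYP2C9 activity was measured with a P450-Glo proluciferin substrate. Enzyme–substrate mix was held with compound for 10 min at room temperature, then NADPH regeneration solution was added for 1 h at 37C. Luciferin product was read as luminescence.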
For `CC1(C)O[C@@H]2C[C@H]3[C@@H]4C[C@H](F)C5=CC(=O)C=C[C@]5(C)[C@@]4(F)[C@@H](O)C[C@]3(C)[C@]2(C(=O)CO)O1`, the Potency was inconclusive: 34.7 µM [inhibitor, partial curve, poor fit]. `O=C(O)O` was tested, and the Potency was inconclusive: 3.07 µM [inhibitor, partial curve]. In the case of `CCCCCCCCCCCCSC#N`, the Potency is reported as inconclusive: 63.3 µM [inhibitor, partial curve, poor fit]. `CC1CCC(C(C)CS)CC1S` (stereo unspecified) was tested, and the Potency was inconclusive: 126 µM [inhibitor, partial curve, poor fit]. For `Cc1ccnc2c1NC(=O)c1cccnc1N2C1CC1`, the Potency was inconclusive: 58.7 µM [inhibitor, partial curve] and inactive. For `CC(CC=O)CCCC(C)(C)O` (stereo unspecified), the Potency was inconclusive: 70.6 µM [inhibitor, partial curve]. With `CCC(=O)/C=C/C1C(C)=CCCC1(C)C` (stereo unspecified) the Potency was inconclusive: 71.2 µM [inhibitor, partial curve, poor fit] and active: 31.7 µM. With `CC(O)CN(CCN(CC(C)O)CC(C)O)CC(C)O` (stereo unspecified) the Potency was inconclusive: 79.6 µM [inhibitor, single point].
